Reference: PMC3257260
These are yes or no findings as the source states them, for the method shown. In cells and extracts the contact can be indirect. Some results given as binding are weak or reduced against the parent protein; the word gives no strength. For some assays here: Tags and fused reporters may be left off the sequences shown.

Amino acid sequences for entries named in this document (tags omitted). A change or cut given only in a name is not applied to a line headed by its entry. Residues count along the entry.
UniProt Q8K1I7: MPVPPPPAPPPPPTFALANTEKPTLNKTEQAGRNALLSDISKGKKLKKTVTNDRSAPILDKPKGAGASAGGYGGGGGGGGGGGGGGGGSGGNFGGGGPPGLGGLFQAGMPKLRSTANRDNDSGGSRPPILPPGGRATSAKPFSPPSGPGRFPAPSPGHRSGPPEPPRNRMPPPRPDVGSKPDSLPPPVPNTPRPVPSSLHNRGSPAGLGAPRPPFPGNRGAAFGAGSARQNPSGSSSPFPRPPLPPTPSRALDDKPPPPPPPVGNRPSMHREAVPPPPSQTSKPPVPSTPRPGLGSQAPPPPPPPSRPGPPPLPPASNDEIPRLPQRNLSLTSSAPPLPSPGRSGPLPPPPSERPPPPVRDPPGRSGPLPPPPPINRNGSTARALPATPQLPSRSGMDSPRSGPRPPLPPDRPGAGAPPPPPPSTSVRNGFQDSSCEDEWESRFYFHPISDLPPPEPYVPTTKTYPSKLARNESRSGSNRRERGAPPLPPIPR
UniProt P70315: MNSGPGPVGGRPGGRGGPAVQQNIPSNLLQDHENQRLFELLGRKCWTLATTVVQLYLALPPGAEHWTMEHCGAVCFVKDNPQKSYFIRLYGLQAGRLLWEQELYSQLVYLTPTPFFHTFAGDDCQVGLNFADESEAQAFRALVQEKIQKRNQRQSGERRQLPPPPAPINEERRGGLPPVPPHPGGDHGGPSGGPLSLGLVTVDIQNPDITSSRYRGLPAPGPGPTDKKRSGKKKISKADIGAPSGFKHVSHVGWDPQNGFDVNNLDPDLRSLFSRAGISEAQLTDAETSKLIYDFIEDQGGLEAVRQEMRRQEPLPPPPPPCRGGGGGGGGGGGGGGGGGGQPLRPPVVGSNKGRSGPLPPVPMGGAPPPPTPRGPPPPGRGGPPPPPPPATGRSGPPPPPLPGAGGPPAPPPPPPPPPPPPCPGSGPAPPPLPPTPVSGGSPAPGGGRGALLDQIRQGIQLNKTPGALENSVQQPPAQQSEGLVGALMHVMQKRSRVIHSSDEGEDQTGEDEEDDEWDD
WASP15-His fusion protein: residues 1-171 of P70315
UniProt Q60631: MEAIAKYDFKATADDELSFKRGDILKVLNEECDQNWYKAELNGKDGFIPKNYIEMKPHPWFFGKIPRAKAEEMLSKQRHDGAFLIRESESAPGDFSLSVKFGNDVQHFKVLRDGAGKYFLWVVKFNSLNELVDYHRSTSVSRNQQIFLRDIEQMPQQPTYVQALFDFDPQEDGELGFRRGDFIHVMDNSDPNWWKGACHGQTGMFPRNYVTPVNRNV

Legend:
[1] = biological target: WASP-interacting protein (WIP) (mouse (endogenous in BMDM)) (UniProt Q8K1I7); assay: co-IP; RIPA lysates of wild-type or WASP15 Tg BMDMs immunoprecipitated with anti-WIP pAb; blot with anti-WASP mAb, anti-Btk mAb, anti-WIP
[2] = biological target: Bruton's tyrosine kinase (Btk) (mouse (endogenous in BMDM)) (UniProt P35991); assay: co-IP; RIPA lysates of wild-type or WASP15 Tg BMDMs immunoprecipitated with anti-Btk mAb; blot with anti-WASP pAb, anti-T7 tag pAb, anti-Btk pAb
[3] = biological target: T1, GST-Btk-SH3 fusion protein (UniProt P35991); assay: pull-down; GST or GST-Btk-SH3 bound to glutathione sepharose beads, incubated overnight at 4°C with precleared RIPA lysates of wild-type or WASP15 Tg BMDMs; beads washed with PBS; blot with anti-WASP mAb; only the target purified
T1 sequence: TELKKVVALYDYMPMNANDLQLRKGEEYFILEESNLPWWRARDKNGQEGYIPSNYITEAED

[4] = biological target: WASP15-His fusion protein (UniProt P70315); assay: pull-down; WASP15-His or GST-His fusion protein incubated overnight at 4°C with RIPA lysates of wild-type or WASP15 Tg BMDMs, without or with LPS (10 µg/mL, 5 h); complexes taken up by the His tag (anti-His tag Ab, His Tagged Protein Purification Kit); blot with anti-Btk or anti-Grb2; only the target purified

Row | Substance | binding [1] | binding [2] | binding [3] | binding [4]
1 | truncated WASP (WASP15) overexpressed in WASP15 Tg BMDMs (from UniProt P70315 1-171) (domain or fragment) | binds | binds | binds | 
2 | Bruton's tyrosine kinase (Btk) (from UniProt P35991 1-659) |  |  |  | binds
3 | Wiskott-Aldrich syndrome protein (WASP), endogenous (from UniProt P70315 1-520) | binds | binds | binds | 
4 | Growth factor receptor-bound protein 2 (Grb2) (from UniProt Q60631 1-217) |  |  |  | no binding
